Test results taken from PMC4336329 (PLoS ONE, 2015).
The whole screen tested about 310,000 compounds, of which about 14,000 (4.5%) showed an effect of 50% or more. Effects have a minus sign here. The list shows a part of the results.

target: human ether-à-go-go-related gene (hERG) potassium channel (human, UniProt Q12809); experiment: primary screen, population patch clamp on CHO cells stably expressing hERG
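Further: peak tail current of the secondary pulse compared with the same well before compound.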

Sequence of human ether-à-go-go-related gene (hERG) potassium channel (Q12809 whole entry, looked up): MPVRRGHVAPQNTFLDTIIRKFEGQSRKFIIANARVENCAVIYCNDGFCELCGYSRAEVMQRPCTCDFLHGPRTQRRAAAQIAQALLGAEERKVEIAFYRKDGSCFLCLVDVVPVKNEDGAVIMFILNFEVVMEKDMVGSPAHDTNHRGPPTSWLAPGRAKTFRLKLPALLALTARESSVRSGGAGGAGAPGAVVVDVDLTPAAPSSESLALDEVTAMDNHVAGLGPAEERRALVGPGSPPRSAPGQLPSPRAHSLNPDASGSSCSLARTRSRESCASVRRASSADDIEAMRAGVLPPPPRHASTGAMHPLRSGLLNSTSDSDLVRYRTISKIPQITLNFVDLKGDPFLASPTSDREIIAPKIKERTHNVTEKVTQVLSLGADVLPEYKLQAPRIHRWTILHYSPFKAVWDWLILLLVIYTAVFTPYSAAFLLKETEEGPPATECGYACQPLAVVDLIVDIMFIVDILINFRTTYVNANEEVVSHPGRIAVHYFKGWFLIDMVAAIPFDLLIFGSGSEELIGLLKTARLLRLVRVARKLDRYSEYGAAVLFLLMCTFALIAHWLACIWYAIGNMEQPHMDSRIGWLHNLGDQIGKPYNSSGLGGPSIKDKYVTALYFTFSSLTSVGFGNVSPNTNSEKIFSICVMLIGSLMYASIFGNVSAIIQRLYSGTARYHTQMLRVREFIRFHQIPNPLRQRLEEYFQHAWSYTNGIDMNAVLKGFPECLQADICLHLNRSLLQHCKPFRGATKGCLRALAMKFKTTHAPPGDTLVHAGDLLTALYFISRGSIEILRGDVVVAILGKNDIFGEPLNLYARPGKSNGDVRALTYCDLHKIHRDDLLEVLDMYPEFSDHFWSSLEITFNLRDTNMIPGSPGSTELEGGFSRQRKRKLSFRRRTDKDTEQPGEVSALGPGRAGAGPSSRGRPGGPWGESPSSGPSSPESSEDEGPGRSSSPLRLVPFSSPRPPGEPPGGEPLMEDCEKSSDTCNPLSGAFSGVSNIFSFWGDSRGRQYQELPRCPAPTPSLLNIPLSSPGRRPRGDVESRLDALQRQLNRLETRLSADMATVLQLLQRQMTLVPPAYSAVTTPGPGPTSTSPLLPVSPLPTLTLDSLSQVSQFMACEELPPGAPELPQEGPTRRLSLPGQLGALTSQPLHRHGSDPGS

SMILES	hERG current change (%, negative = inhibition) at 10uM
Cl.OC(COCCC12CC3CC(CC(C3)C1)C2)CN1CCCCC1 (centres unmarked)	-40.1%
Brc1ccc(-c2csc(/N=C/N3CCCC3)n2)cc1	-17.4%
C/C(CCc1ccc2c(c1)OCO2)=N\NC(=O)c1ccccc1Br	-41.4%
COc1cc([N+](=O)[O-])ccc1NC(=O)Oc1ccc(NC(C)=O)cc1	2.32%
COCCn1c(SCC(=O)Nc2ccccc2OC)nc2c([nH]c3ccccc32)c1=O	-6.52%
CCOC(=O)CCCNC(=O)CCNC(=O)c1ccc(OCCC(C)C)cc1	5.87%
Nc1nc(Oc2ccc(F)cc2)c(Br)c(=O)[nH]1	7.49%
CC(=O)[C@@H]1[C@@H](C(=O)c2ccccc2)[C@]2(C(=O)Nc3ccccc32)[C@H]2C=Cc3cc(F)ccc3N12	3.37%
O=C(CNC(=O)c1ccccc1Br)N/N=C/c1cccnc1	13.4%
CCOC(=O)c1c(C)[nH]c(C)c1C(=O)COC(=O)/C=C/c1cccc(Cl)c1	6.76%
Cc1cc(NC(=O)c2cc(-c3ccccc3)on2)n(-c2ccccc2)n1	3.96%
COc1cnc(-c2ccccn2)nc1Oc1cccc(Cl)c1	-3.55%
O=C(CN1C(=O)COc2ccccc21)N1CCN(C2CCCCC2)CC1	1.4%
O=C(Nc1cc(C(F)(F)F)ccc1N1CCOCC1)c1ccc[n+]([O-])c1	5.15%
COc1ccc(Cc2n[nH]c(=S)n2-c2ccc3c(c2)OCCO3)cc1	32.6%
Cc1ccc2[nH]c(C)c(CCNC(=O)NC3CCCCC3)c2c1	7.63%
CCSc1nnc(NC(NC(=O)c2ccco2)(C(F)(F)F)C(F)(F)F)s1	-2.49%
CCN(C(=O)COC(=O)CCc1c[nH]c2ccccc12)c1c(N)n(Cc2ccccc2)c(=O)[nH]c1=O	0.628%
O=S(=O)(c1ccc2c(c1)OCCO2)N1CCCN(S(=O)(=O)c2c(F)cccc2F)CC1	-13.8%

SMILES	hERG current change (%, negative = inhibition) at 10uM
COc1ccc(-n2nnnc2SCC(=O)Nc2ccccc2N2CCOCC2)cc1OC	-46.9%
CC(C)CNC(=O)c1cc([N+](=O)[O-])ccc1N1CCOCC1	4.47%
O=C(OCC[NH+]1CCOCC1)c1cccnc1.[Cl-]	1.91%
O=C(COC(=O)C1=COCCO1)NCc1ccc(F)cc1	9.07%
Cc1nn(C)c(C)c1NC(=O)Nc1ccc(Cl)c(Cl)c1	8.03%
O=c1[nH]c(-[n+]2ccccc2)c(/C=N/N=C(\[O-])c2ccccc2)s1	27.4%
CCSc1nnc2c(n1)[nH]c1c(C)cccc12	-3.16%
Cc1cccc(NC(=S)N(CCCN2CCOCC2)Cc2ccco2)c1	-29.9%
CC(C)(C)c1ccc(Cn2c(=O)cnc3ccccc32)cc1	-4.85%
CC(C)CN1CCN(Cc2ccccc2C(F)(F)F)CC1CCO (centres unmarked)	4.5%
O=C(Nc1ccc(F)cc1)C(Sc1nc2ccccc2[nH]1)c1ccccc1 (centres unmarked)	24.2%
CCOc1ccc(N2C(=O)C(CC(=O)Nc3ccccc3)N(Cc3ccccn3)C2=S)cc1 (centres unmarked)	-15.3%
O=C(/C=C/c1cccc([N+](=O)[O-])c1)Nc1cccc(NC(=O)c2cccs2)c1	-11.7%
Cc1ccc(NCN2C(=O)c3ccccc3C2=O)c(C)c1	-20.7%
CCOc1ccc(N2C(=O)/C(=C\c3ccc(O)c(OC)c3)S(=O)(=O)C2c2cccc([N+](=O)[O-])c2)cc1 (centres unmarked)	25.6%
COc1ccc(S(=O)(=O)N2CCCCC2)cc1NC(=O)c1cccs1	32.3%
C/C(=N/NS(=O)(=O)c1cc(C)ccc1C)c1ccncc1	11%
COc1ccc(-n2nnnc2SCC(=O)Nc2cccc(NC(C)=O)c2)cc1OC	-2.11%
CC(C)(C)c1ccc(-n2ncc3c2CCCC3NC(=O)c2csnn2)cc1 (centres unmarked)	1.88%

SMILES	hERG current change (%, negative = inhibition) at 10uM
Cc1cccc(N2C(=O)CC(Sc3nc(C)c4c(n3)CCCC4)C2=O)c1 (centres unmarked)	-1.59%
O=c1oc2ccccc2cc1-c1ccccc1	14.5%
COc1cc(/C=N/N=C2/C(=O)Nc3ccccc32)cc(OC)c1O	-3.68%
Cc1ccc(NC(=O)NCc2ccncc2)cc1Cl	-2.27%
COc1ccc2ccccc2c1/C=N/NC(=O)c1cccc(C)c1	-12.9%
CCOc1ccc(C(=O)n2cc(C(=O)OC)c3ccccc32)cc1OCC	3.18%
CCOc1ccc(-c2cc(C(=O)N3CCCC3)c3ccccc3n2)cc1	7.81%
O=C(Cc1ccccc1[N+](=O)[O-])OCN1C(=O)c2ccccc2C1=O	9.99%
O=C(Nc1ccncc1)c1ccc(Cl)c(S(=O)(=O)N2CCCCC2)c1	-31.3%
O=C(NC1CC(=O)c2sccc21)c1ccc(Cl)cc1Cl (centres unmarked)	-35.6%
CCc1ccc(NC(=O)Cn2nnc(C(=O)NCc3ccco3)c2N)cc1	9.83%
CC1CCC(C(C)C)C(OC(=O)CSc2nc(N)cc(=O)[nH]2)C1 (centres unmarked)	12.7%
O=C(c1cccc(Oc2ccccc2)c1)N1CCN(c2ccccn2)CC1	-39.7%
CCCCn1nc(C(=O)Nc2ccccc2N2CCCC2)c2ccccc2c1=O	-9.4%
CCCC1(CCC)C(=O)NC(=NCc2ccccc2)NC1=O	12.7%
O=C(O)CC1Sc2nnc(COc3ccc(Cl)cc3)n2N=C1c1ccccc1 (centres unmarked)	21.2%
CCCc1cc(=O)[nH]c(SCC(=O)Nc2ccc(C)cc2)n1	25.5%
CCOc1ccccc1NS(=O)(=O)c1ccc(-n2cccn2)cc1	-5.38%
